Test results published in PubChem BioAssay AID686979 (National Center for Advancing Translational Sciences (NCATS), 2013).
Several values for one entry are separate records, joined by “and”; a condition that tells them apart may be missing. Identical values can stand only once. Screen size: about 420,000 compounds; about 50,000 (12%) were called active. The shares of active, inactive and inconclusive entries below differ from those in the screen. Calls follow the shape of the dose curve; as a rule, active = well fitted inhibition curve with a large enough effect; inconclusive = small, poorly fitted or top-dose-only effect; inactive = flat fitted curve, though single readings scatter. No potency is given beside an inconclusive call; the fits are too rough.

test: qHTS for Inhibitors of human tyrosyl-DNA phosphodiesterase 1 (TDP1): qHTS in cells in presence of CPT; details: chicken DT40 Tdp1-/-;hTDP1 cells + 20 nM CPT, ATP luminescence, 48 h; activity change, negative = growth inhibition: at 46.2 µM (top of the series) unless noted; also: nearly all actives have a fitted effect of over 55% in size
Outline: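 Cell growth measured by CellTiter-Glo luminescence after a minimum 48 h, 37 C compound exposure with 20 nM CPT in Tdp1-knockout DT40 cells stably expressing hTDP1, seeded 400/well; qHTS titration format.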
% is scaled to controls: 0 for no effect and ±100 for the full control effect; potency is read from the fitted curve at half-maximal effect; tags tell the direction and shape of the fitted curve.

**Q.** Which Potency does the source give for `CCOC(=O)c1[nH]c2ccccc2c1NC(=O)c1ccc(S(=O)(=O)N(C)C)cc1` here?
**A.** inactive

**Q.** With `CN(C)S(=O)(=O)c1cccc(NC(=O)c2cccc(S(=O)(=O)N3CCCCCC3)c2)c1` as the compound, how does the Potency read?
**A.** inconclusive [inhibitor, single point]

**Q.** With `COCCN(C(=O)Cc1cccs1)C(C(=O)NCc1ccc(OC)cc1)c1ccc(OC)cc1` (stereo unspecified) as the compound, how does the Potency read?
**A.** inconclusive [inhibitor, single point]

**Q.** With `O=C1CC(c2ccccc2)Sc2ccccc2N1` (stereo unspecified) as the compound, how does the Potency read?
**A.** active: 13 µM

**Q.** With `CCCCN(CCCC)c1nn[nH]n1` as the compound, how does the Potency read?
**A.** inconclusive [inhibitor, partial curve]

**Q.** Which Potency does the source give for `CCOc1ccc(CCNC(=O)CCn2c(=O)c3cccn3c3ccc(F)cc32)cc1OCC` here?
**A.** inconclusive [inhibitor, partial curve, poor fit]

**Q.** For `COc1ccccc1C(=O)n1nc(-c2ccc(Cl)cc2)nc1N`, which activity change, negative = growth inhibition is on record?
**A.** inconclusive: -31.9% [inhibitor]

**Q.** For `CC(=O)Nc1cc[n+](C(C)C(=O)c2ccc(Cl)cc2)cc1` (stereo unspecified), which Potency is on record?
**A.** active: 16.4 µM

**Q.** For `COc1cc(C(=S)N2CCOCC2)cc(Br)c1OS(=O)(=O)c1ccccc1`, which Potency is on record?
**A.** inconclusive [inhibitor, single point]

**Q.** Which Potency does the source give for `CC(C)(C)c1ccc(OCC(=O)Nc2ccncc2)cc1` here?
**A.** inconclusive [inhibitor, partial curve]

**Q.** For `COc1ccc(S(=O)(=O)N(C)CC(=O)NC2CCCCC2)cc1Cl`, which Potency is on record?
**A.** inactive

**Q.** For `O=C(COc1coc(CN2CCN(c3ccc(F)cc3)CC2)cc1=O)NC1CCCCC1`, which Potency is on record?
**A.** inconclusive [inhibitor, partial curve, poor fit]

**Q.** Which activity change, negative = growth inhibition does the source give for `O=C(CSc1nc2ccccc2c(=O)[nH]1)Nc1ccc(N2CCOCC2)c(Cl)c1` here?
**A.** inconclusive: -31.8% [inhibitor]

**Q.** With `COc1cc(OC)cc(C(=O)NCC(=O)OCC(=O)NC(C)CCc2ccccc2)c1` (stereo unspecified) as the compound, how does the Potency read?
**A.** inactive

**Q.** For `O=C(CSc1nnc(-c2csc3c2CCCC3)o1)Nc1ccccc1`, which Potency is on record?
**A.** inconclusive [inhibitor, single point]

**Q.** For `CC(=O)NCCNc1nc(-c2ccccc2C)nc2ccccc12`, which Potency is on record?
**A.** inactive

**Q.** For `O=S(=O)(c1ccc2c(c1)OCCO2)N1CCN(c2nc3ccccc3s2)CC1`, which Potency is on record?
**A.** inconclusive [inhibitor, partial curve, poor fit]

**Q.** With `Cc1cc(C(=O)OC(C)C(=O)NC2CCCCC2C)c2ccccc2n1` (stereo unspecified) as the compound, how does the Potency read?
**A.** inactive

**Q.** With `CSc1ccc(N2CCN(CCCNC(=O)Nc3ccccc3F)CC2)cc1` as the compound, how does the Potency read?
**A.** inconclusive [inhibitor, single point]

**Q.** For `CCOC(=O)c1c(S(=O)(=O)N2CCCCC2C)c(C)n(C)c1C` (stereo unspecified), which Potency is on record?
**A.** inconclusive [inhibitor, single point]

**Q.** For `O=C(OCCc1cc2ccccc2c(=O)o1)c1ccc2c(c1)OCO2`, which Potency is on record?
**A.** inconclusive [inhibitor, single point]

**Q.** Which Potency does the source give for `Cc1ccc(S(=O)(=O)N2CCC(=O)c3ccccc32)cc1` here?
**A.** inconclusive [inhibitor, partial curve, poor fit]

**Q.** For `Cc1cccc(N2CCN(C(=O)CCc3nc4ccccc4[nH]3)CC2C)c1` (stereo unspecified), which Potency is on record?
**A.** inconclusive [inhibitor, single point]

**Q.** Which Potency does the source give for `CCC(Oc1ccccc1)C(=O)Nc1ccccc1OC` (stereo unspecified) here?
**A.** inconclusive [inhibitor, single point]

**Q.** Which Potency does the source give for `CCOc1ccccc1NC1=CC(=O)CC(c2ccccc2)C1` (stereo unspecified) here?
**A.** inconclusive [inhibitor, single point]

**Q.** Which Potency does the source give for `COC(=O)CNC(=O)CSc1nnc2cc(C)c3ccccc3n12` here?
**A.** inactive

**Q.** Which Potency does the source give for `O=C(Nc1nc(-c2ccccc2)nc2ccccc12)c1ccc(F)cc1` here?
**A.** inconclusive [inhibitor, single point]

**Q.** With `Oc1ccccc1/C=N/NC(=S)NC1CC2CC1C1C=CCC21` (stereo unspecified) as the compound, how does the Potency read?
**A.** active: 3.66 µM

**Q.** Which Potency does the source give for `Cc1ccc(C)c(CSc2cn(CC(=O)N3CCCC3)c3ccccc23)c1` here?
**A.** inconclusive [inhibitor, single point]

**Q.** With `O=C(c1ccc(Cl)nc1)N1CCC(Cc2ccccc2)CC1` as the compound, how does the Potency read?
**A.** inactive

**Q.** Which Potency does the source give for `CCCCn1c(N)c(N(CC(C)C)C(=O)c2cccc(S(=O)(=O)N3CCN(C(C)=O)CC3)c2)c(=O)[nH]c1=O` here?
**A.** inactive

**Q.** For `CN(Cc1ccccc1)c1ccc2cc(S(=O)(=O)N3CCCCC3)ccc2n1`, which Potency is on record?
**A.** active: 10.3 µM

**Q.** For `O=C(O)c1ccc(N/N=C/c2cccc(C(F)(F)F)c2)cc1`, which activity change, negative = growth inhibition is on record?
**A.** inconclusive: -31.8% [inhibitor]

**Q.** Which Potency does the source give for `CC(O)CNCCCOc1ccc(Cl)cc1C(C)(C)C` (stereo unspecified) here?
**A.** active: 13 µM

**Q.** Which activity change, negative = growth inhibition does the source give for `CSCCC(NC(=O)c1ccc(Cl)cc1)C(=O)NC(C)(C)C` (stereo unspecified) here?
**A.** inconclusive: -37.5% [inhibitor]

**Q.** With `COc1cc(C)c(/C=C(\C#N)C(=O)Nc2cccc(C)c2)cc1C(C)C` as the compound, how does the Potency read?
**A.** inactive

**Q.** For `CCCc1nc2c(c(=O)c3ccccc3n2C)c(=O)n1C1CCCCCC1`, which Potency is on record?
**A.** active: 18.4 µM

**Q.** For `O=C(N/N=C/c1ccoc1)c1cc(O)cc(O)c1`, which Potency is on record?
**A.** inactive

**Q.** Which Potency does the source give for `CC1Sc2ccccc2N(Cc2ccc(OC(F)(F)F)cc2)C1=O` (stereo unspecified) here?
**A.** inactive

**Q.** With `O=C(Nc1ccc(F)c(F)c1)C1CCCN1S(=O)(=O)c1ccc(F)cc1` (stereo unspecified) as the compound, how does the Potency read?
**A.** inconclusive [inhibitor, single point]

**Q.** For `CCOc1ccccc1NC(=O)c1cc(=O)c2ccccc2o1`, which Potency is on record?
**A.** inactive

**Q.** Which Potency does the source give for `CCN(CCO)Cc1cc(=O)oc2c(C)c(C)ccc12` here?
**A.** inactive

**Q.** With `O=C(c1ccccc1)N1CCC(O)(c2cccnc2)CC1` as the compound, how does the Potency read?
**A.** inactive

**Q.** With `CCOc1ccccc1NC(=O)Cn1c(=O)c2ccccc2n(CC)c1=O` as the compound, how does the Potency read?
**A.** inconclusive [inhibitor, single point]

**Q.** With `CC(CN1CCCC1)OC(=O)c1cccc(F)c1` (stereo unspecified) as the compound, how does the Potency read?
**A.** inactive

**Q.** For `COc1cc(NC(=O)CSc2cc(=O)n(C)c3ccccc23)cc(OC)c1OC`, which Potency is on record?
**A.** active: 10.3 µM

**Q.** For `CCN(CC)c1ncnc2sc(C(=O)N3CCN(c4ccc(OC)cc4)CC3)c(C)c12`, which Potency is on record?
**A.** inconclusive [inhibitor, single point]

**Q.** With `COc1ccc(C(=O)COC(=O)c2ccc([N+](=O)[O-])s2)cc1OC` as the compound, how does the Potency read?
**A.** inactive

**Q.** Which Potency does the source give for `CCOc1ccc(-c2nn3c(-c4cc(-c5ccccc5)n[nH]4)nnc3s2)cc1` here?
**A.** active: 7.94 µM and active: 15.8 µM

**Q.** Which Potency does the source give for `Cc1c(C(=O)N(C)Cc2ccccc2)sc2nc(-c3ccc(F)cc3)cn12` here?
**A.** inconclusive [inhibitor, single point]

**Q.** For `CCOc1ccc(N(CC(=O)Nc2c(C)n(C)n(-c3ccccc3)c2=O)S(=O)(=O)c2ccccc2)cc1`, which Potency is on record?
**A.** inactive

**Q.** For `C=CCN(C(=O)CCC(=O)Nc1cc(C)on1)C(C(=O)NC1CCCC1)c1ccc(Cl)cc1` (stereo unspecified), which Potency is on record?
**A.** inconclusive [inhibitor, single point]

**Q.** For `O=C(CN1CCN(CC(=O)Nc2ccccc2Cl)CC1)NCC1(N2CCOCC2)CCCCC1`, which Potency is on record?
**A.** inconclusive [inhibitor, single point]

**Q.** With `CC(=O)Nc1cccc(OCCCOc2ccc([N+](=O)[O-])cc2)c1` as the compound, how does the Potency read?
**A.** active: 13 µM

**Q.** With `Cc1cc(NC(=O)CCc2ccc(S(=O)(=O)N3CCOCC3)cc2)n(-c2ccccc2)n1` as the compound, how does the Potency read?
**A.** active: 11.6 µM

**Q.** With `Cc1ccc(S(=O)(=O)Nc2ccc(Br)cc2/C=N/n2cnnc2)cc1` as the compound, how does the Potency read?
**A.** inconclusive [inhibitor, single point]

**Q.** With `CCOC(=O)c1cc(-c2ccc(OC)cc2F)nc2c1c(C)nn2CCC#N` as the compound, how does the Potency read?
**A.** inconclusive [inhibitor, single point]

**Q.** With `CNc1c(NC(=O)c2ccc3c(c2)OCO3)c(=O)oc2ccccc12` as the compound, how does the Potency read?
**A.** inactive

**Q.** For `COc1ccc(C2Nc3ccccc3C(=O)N2Cc2ccccc2)cc1CSc1ccccn1` (stereo unspecified), which Potency is on record?
**A.** active: 23.1 µM

**Q.** For `N=C(N)SCc1ccc(Cl)cc1Cl`, which Potency is on record?
**A.** active: 23.1 µM

**Q.** For `Cc1cc(NC(=O)Nc2ccc(F)cc2)no1`, which Potency is on record?
**A.** inactive

**Q.** Which Potency does the source give for `Cc1nc(N2CCCCC2)c2c(C)c(C(=O)Nc3ccc4c(c3)OCCO4)sc2n1` here?
**A.** inconclusive [inhibitor, single point]

**Q.** For `CC1=NOC(=O)/C1=C\c1ccc(-c2cccc(Cl)c2)o1`, which Potency is on record?
**A.** active: 5.8 µM

**Q.** Which Potency does the source give for `O=C(Nc1cc(S(=O)(=O)Nc2ccc(Cl)cc2)ccc1N1CCCCC1)c1ccc(F)cc1` here?
**A.** active: 20.6 µM

**Q.** For `CCc1ccc(NC(=O)C2(c3ccccc3)CC2(Cl)Cl)cc1` (stereo unspecified), which Potency is on record?
**A.** inconclusive [inhibitor, single point]

**Q.** Which Potency does the source give for `CCC12CN3CC(CC)(CN(C1)C3c1c[nH]c3ccccc13)C2=O` (stereo unspecified) here?
**A.** inactive

**Q.** Which Potency does the source give for `CCOC(=O)N1CCN(C(=O)C2CCN(Cc3cccc(OCc4ccccc4)c3)CC2)CC1` here?
**A.** inconclusive [inhibitor, single point]

**Q.** With `Cc1nc2c(-c3ccccc3)c(C)nn2c(N)c1-c1ccccc1` as the compound, how does the Potency read?
**A.** active: 20.6 µM

**Q.** For `CCOC(=O)Cc1c(-c2cccc(Br)c2)nc2c3ccccc3ccn12`, which Potency is on record?
**A.** inconclusive [inhibitor, single point]

**Q.** Which Potency does the source give for `CN1OC[C@@H]2CN(Cc3cc(Cl)cc(Cl)c3)[C@H](c3cccc(-c4ccc(C#N)cc4)c3)C[C@@H]21` here?
**A.** active: 20.6 µM

**Q.** With `CCOC(=O)c1sc(NC(=O)c2ccco2)nc1-c1ccccc1` as the compound, how does the activity change, negative = growth inhibition read?
**A.** inconclusive: -11.4% [inhibitor]

**Q.** Which Potency does the source give for `COCCN(C(=O)c1ccco1)c1nnc(-c2ccc(OC)c(OC)c2)s1` here?
**A.** inactive

**Q.** Which Potency does the source give for `CCc1ccc(NC(=S)N2CCN(c3cccc(C(F)(F)F)c3)CC2)cc1` here?
**A.** inconclusive [inhibitor, partial curve]

**Q.** With `Cc1noc2ncnc(NCCc3ccccc3)c12` as the compound, how does the Potency read?
**A.** active: 7.31 µM

**Q.** With `O=C(CCCNC(=O)/C(=C/c1ccc(Br)cc1)NC(=O)c1ccccc1)OCc1ccccc1` as the compound, how does the Potency read?
**A.** inconclusive [inhibitor, single point]

**Q.** With `COc1ccc(CCN2C(=O)CCC2(C)C(=O)NCc2cccnc2)cc1OC` (stereo unspecified) as the compound, how does the activity change, negative = growth inhibition read?
**A.** inconclusive: -32.2% [inhibitor]
